Source: patent US20050147610A1 (AbbVie / Abbott, published 2005)
Where two headings read alike, the source gives them in different places.

How the values were obtained:
[1] = target: T1, recombinant human IL-12 (human, UniProt P29459 23-219; P29460 23-328); test: BIACORE, antibody captured, cytokine in solution
T1 construct: the two subunits are the natural heterodimer
T1 sequence (looked up) 1: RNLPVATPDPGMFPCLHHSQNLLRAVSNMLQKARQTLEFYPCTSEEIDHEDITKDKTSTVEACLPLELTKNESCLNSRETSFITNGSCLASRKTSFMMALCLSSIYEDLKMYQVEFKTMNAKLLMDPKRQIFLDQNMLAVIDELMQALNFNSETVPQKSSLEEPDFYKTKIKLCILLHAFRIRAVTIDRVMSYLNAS
T1 sequence (looked up) 2: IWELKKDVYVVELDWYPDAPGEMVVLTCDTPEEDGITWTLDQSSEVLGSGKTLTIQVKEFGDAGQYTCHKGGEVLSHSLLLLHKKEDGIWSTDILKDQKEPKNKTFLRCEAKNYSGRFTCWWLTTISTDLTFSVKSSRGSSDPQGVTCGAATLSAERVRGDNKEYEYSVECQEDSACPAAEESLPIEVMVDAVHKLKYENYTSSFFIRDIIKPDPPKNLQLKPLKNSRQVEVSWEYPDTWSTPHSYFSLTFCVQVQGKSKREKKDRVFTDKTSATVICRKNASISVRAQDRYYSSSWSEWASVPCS

[2] = target: recombinant human IL-8 (human, UniProt P10145 28-99, limits assumed); test: BIACORE, antibody captured, cytokine in solution
UniProt P10145, sequence (P10145 28-99 limits assumed): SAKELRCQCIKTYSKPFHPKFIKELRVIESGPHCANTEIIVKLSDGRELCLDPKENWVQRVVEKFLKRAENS

[3] = target: T2, recombinant human IL-16 (human, UniProt Q14005 1212-1332, limits assumed); test: BIACORE, antibody captured, cytokine in solution
T2 sequence (looked up): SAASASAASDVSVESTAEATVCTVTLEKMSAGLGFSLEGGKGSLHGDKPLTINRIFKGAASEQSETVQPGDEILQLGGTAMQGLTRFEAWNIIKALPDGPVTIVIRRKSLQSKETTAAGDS

[4] = target: recombinant human IL-21 (human, UniProt Q9HBE4 part only, limits assumed); test: BIACORE, antibody captured, cytokine in solution
UniProt Q9HBE4, sequence (Q9HBE4 32-162 limits assumed): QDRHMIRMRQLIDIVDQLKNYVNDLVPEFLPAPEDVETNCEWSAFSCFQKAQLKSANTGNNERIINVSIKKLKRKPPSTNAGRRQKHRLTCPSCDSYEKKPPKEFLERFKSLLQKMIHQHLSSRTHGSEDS

[5] = target: recombinant human IL-5 (human, UniProt P05113 20-134); test: BIACORE, antibody captured, cytokine in solution
UniProt P05113, sequence (P05113 20-134 limits assumed): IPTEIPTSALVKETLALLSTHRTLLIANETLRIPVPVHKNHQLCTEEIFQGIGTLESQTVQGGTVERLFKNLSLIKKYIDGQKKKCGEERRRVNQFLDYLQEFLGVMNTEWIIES

[6] = target: recombinant human IL-13 (human, UniProt P35225 part only, limits assumed); test: BIACORE, antibody captured, cytokine in solution
UniProt P35225, sequence (P35225 35-146 limits assumed): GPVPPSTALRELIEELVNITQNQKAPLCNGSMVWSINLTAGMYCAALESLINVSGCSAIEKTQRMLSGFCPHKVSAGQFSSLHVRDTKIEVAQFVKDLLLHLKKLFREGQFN

[7] = target: recombinant human IL-17 (human, UniProt Q16552 24-155, limits assumed); test: BIACORE, antibody captured, cytokine in solution
UniProt Q16552, sequence (Q16552 24-155 limits assumed): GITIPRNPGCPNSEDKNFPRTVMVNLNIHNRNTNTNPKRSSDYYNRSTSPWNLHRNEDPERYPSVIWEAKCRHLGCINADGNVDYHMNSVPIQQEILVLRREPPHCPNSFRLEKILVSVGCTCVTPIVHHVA

[8] = target: T3, 125I labeled rhu-IL-18 (human, UniProt Q14116 37-193, NEM-treated cysteines; 125I label on lysine residues); test: RBA: inhibition of 125I-rhu-IL-18 binding to IL-18Rαβ on KG-1 cells
[9] = target: T4, recombinant mature human IL-18 (preparation not specified) (human, UniProt Q14116 37-193); test: cell-based or functional assay
[10] = target: T5, natural human IL-18 (endogenous, human whole blood) (human, UniProt Q14116 37-193); test: cell-based or functional assay
[11] = target: T4, recombinant mature human IL-18 …; test: cell-based or functional assay; remark: listed apart in the source
[12] = target: T5, natural human IL-18 (endogenous, human …); test: cell-based or functional assay; remark: listed apart in the source
[13] = target: T3, 125I labeled rhu-IL-18; test: RBA: inhibition of 125I-rhu-IL-18 binding to IL-18Rαβ on KG-1 cells; remark: listed apart in the source
[14] = target: T6, (4C/A)-huIL-18 (4C/A mutant of mature human IL-18) (human, UniProt Q14116 37-193); test: BIACORE, (4C/A)-HuIL-18
T6 construct: All four Cys of mature IL-18 are changed to Ala; also called 4C/A mutant of IL-18; Cysteine > Alanine mutant BV derived rec. human IL-18

[15] = target: T3, 125I labeled rhu-IL-18; test: RBA: inhibition of 125I-rhu-IL-18 binding to IL-18Rαβ on KG-1 cells; remark: listed apart in the source
[16] = target: T7, NEM-huIL-18 (recombinant mature human IL-18 treated with N-ethyl maleiamide) (human, UniProt Q14116 37-193, cysteines protected with N-ethyl maleiamide (NEM)); test: Biacore, NEM-cys protected rhuIL-18
T7 construct: monomeric; also called NEM-IL-18; NEM-rhuIL-18

[17] = target: T6, (4C/A)-huIL-18 (4C/A mutant of mature …); test: BIACORE

B1: 2.5(E)mg1 (antibody, human IgG1, kappa, L234A L235A)
heavy: ZVQLVQSGTEVKKPGESLKISCKGSGYTVTSYWIGWVRQMPGKGLEWMGFIYPGDSETRYSPTFQGQVTISADKSFNTAFLQWSSLKASDTAMYYCARVGSGWYPYTFDIWGQGTMVTVSSASTKGPSVFPLAPSSKSTSGGTAALGCLVKDYFPEPVTVSWNSGALTSGVHTFPAVLQSSGLYSLSSVVTVPSSSLGTQTYICNVNHKPSNTKVDKKV[letters of human IgG1 Fc with changes not shown]
light: EIVMTQSPATLSVSPGERATLSCRASESISSNLAWYQQKPGQAPRLFIYTASTRATDIPARFSGSGSGTEFTLTISSLQSEDFAVYYCQQYNNWPSITFGQGTRLEIKRTVAAPSVFIFPPSDEQLKSGTASVVCLLNNFYPREAKVQWKVDNALQSGNSQESVTEQDSKDSTYSLSSTLTLSKADYEKHKVYACEVTHQGLSSPVTKSFNRGEC
notes: Human IgG1/kappa with L234A, L235A (mg1); also called 2.5(E)mg1 HuMAb; anti-IL-18 HuMAb 2.5(E)mg1
[1]
  binding result: no binding (tested: 1 µM)
[2]
  binding result: no binding (tested: 1 µM)
[3]
  binding result: no binding (tested: 1 µM)
[4]
  binding result: no binding (tested: 1 µM)
[5]
  binding result: no binding (tested: 1 µM)
[6]
  binding result: no binding (tested: 1 µM)
[7]
  binding result: no binding (tested: 1 µM)
[8]
  IC50: 2400 pM
[9]
  KG-1, Neutralization Potency in vitro (IC50, nM): 0.2 nM
[10]
  WBA, Neutralization Potency in vitro (IC50, nM): 3 nM
[11]
  KG-1 bioassay IC50: < 500 pM
[12]
  human WBA IC50: < 5000 pM
[13]
  IC50: 2380 pM
[14]
  Kd: 196 pM
  koff: 5.24e-05 s⁻¹
  kon: 268000 M⁻¹ s⁻¹
[15]
  IC50: < 2000 pM
[16]
  Kd: 310 pM
[17]
  Kd: 196 pM
  koff: 5.24e-05 s⁻¹
  kon: 268000 M⁻¹ s⁻¹
